ChEMBL document CHEMBL4888484, “Replenishing the malaria drug discovery pipeline: Screening and hit evaluation of the MMV Hit Generation Library 1 (HGL1) against asexual blood stage Plasmodium falciparum ,using a nano luciferase reporter read-out” (2022)
In all, about 150,000 compounds went through this assay and about 540 (0.36%) showed an effect of 50% or more. The list shows a part of the results.

These compounds were tested on Plasmodium falciparum (assay: Primary screen in NF54 nanoGlo assay, in single point, at 2uM, 72h; a lower Z score goes with more inhibition). Conditions: timepoint 72 hour.
Assay type: functional, Erythrocyte

| SMILES | % Inhibition [%] | Z score |
| --- | --- | --- |
| CC[C@H](C)c1ccc(O)c(NC(=O)COc2ccc(Cl)cc2-n2cnnc2)c1 | -6 | 0.84 |
| Cc1ccnn1CCN(Cc1ccc2[nH]ccc2c1)C1CC1 | -15 | 3.03 |
| CCCn1nccc1-c1nc(Cc2cc(C(F)(F)F)ccn2)no1 | -9 | 1.28 |
| O=C(Nc1ccc(F)c(Cl)c1)c1nc(-c2cn(-c3ccccc3)nn2)no1 | -12 | 2.36 |
| O=c1[nH]cnc2[nH]nc(NS(=O)(=O)c3ccc4c(c3)CCCC4)c12 | -13 | 1.35 |
| O=S(=O)(c1ccc2c(c1)OCCCO2)N1CC[C@H](c2ccsc2)C1 | -4 | 0.68 |
| NC(=O)c1ccc(S(=O)(=O)NCCN2CCCCCC2=O)cc1 | -6 | 1.19 |
| Cc1nn(C)c2nc(N3CC[C@H](N4CCCC4)C3)sc12 | -10 | 1.99 |
| NC(=O)[C@H](Cc1ccc(O)cc1)NC(=O)[C@@H]1CCCN2CCCC[C@H]12 | -9 | 1.06 |
| COc1ccc(CN2CCC(C(=O)O)(n3cc(C)cn3)CC2)c(OC)c1 | -1 | 0.14 |
| CC[C@H](C)N(C(=O)CCN)C1CCCC1 | -13 | 1.55 |
| CC1(C)[C@@H]2CC[C@]13CS(=O)(=O)N(C(=O)CCc1cccnc1)[C@@H]3C2 | -7 | 0.88 |
| O=C(NCCc1cscn1)c1cnn(Cc2ccccc2)c1 | -13 | 1.82 |
| O=C(c1ccc2[nH]cnc2c1)N1C[C@@H]2CC[C@H]1CN(Cc1cscn1)C2 | 4 | -0.53 |
| O=C(c1ccc2nccnc2c1)N1CCC(Oc2ccc(Cl)cc2)CC1 | -13 | 2.52 |
| CCN(CC)CCNC(=O)c1cc(C(c2ccccc2)c2ccccc2)no1 | -9 | 1.19 |
| O=C1CC[C@H](N2CCN(Cc3ccccc3)CC2)CCN1CCOc1ccccc1 | -12 | 1.59 |
| COc1ccc(S(=O)(=O)NCc2nnc(C(=O)Nc3ccc(F)cc3F)s2)cc1 | 24 | -2.74 |
| Cc1ccc(S(=O)(=O)N2CCC[C@H](n3ccnn3)C2)o1 | -7 | 0.93 |
| O=C1CN(Cc2ncc(-c3ccccc3)o2)CCN1 | 3 | -0.3 |
| Cc1ccc2c(Nc3ccc(OCc4ccccc4)cc3)c(C(=O)N3CCOCC3)cnc2n1 | -8 | 1.26 |
| Cc1ccc2nc(N3CCC[C@H](O)C3)c(CN3CCOC(C)(C)C3)cc2c1 | -9 | 1.8 |

| SMILES | % Inhibition [%] | Z score |
| --- | --- | --- |
| COc1c(C)cc(C(=O)[C@H]2CCCN(C(=O)CCc3ccncc3)C2)cc1C | -12 | 1.82 |
| CCc1c(C)nn2c(=O)cc(-c3nc(C)c[nH]3)[nH]c12 | -4 | 0.49 |
| CC(C)N1CCO[C@@H](CCNC(=O)[C@H]2CC[C@H](C)CC2)C1 | -1 | 0.25 |
| O=C(NCc1cn2c(n1)C(=O)N(Cc1ccccc1)CC2)c1cnccn1 | -13 | 1.72 |
| Cc1nc(CNC(=O)[C@H](O)c2ccccc2Cl)n[nH]1 | 4 | -0.69 |
| CCCC[C@H](CC)CNC(=O)C(=O)Nc1nccs1 | 2 | -0.22 |
| N#Cc1ccc(Br)cc1Br | 5 | -0.72 |
| Cc1cccc2c1nc1n2[C@@H](CN(Cc2c[nH]c3ccccc23)Cc2c[nH]c3ccccc23)COC1 | -1 | 0.16 |
| c1cc2c(cc1-c1csc(N3CCOCC3)n1)OCCO2 | -20 | 1.68 |
| CC1CCCC(N(CC(=O)Nc2ccc(S(N)(=O)=O)cc2)Cc2ccc3c(c2)OCO3)C1C (stereo not given) | -18 | 2.1 |
| COc1ccc(-c2nn(-c3ccccc3)cc2CC(=O)N2CC[C@H](CN)C2)cc1 | -9 | 1.64 |
| Cc1ccc(O[C@H]2CCCN(C(=O)c3cc(=O)[nH]c(=O)[nH]3)C2)nn1 | -14 | 2.4 |
| O=C(c1cn(-c2cccc(Cl)c2F)nn1)N1CCC[C@@H]1Cn1ccnc1 | 4 | -0.62 |
| Cc1nc(CC(C)C)c(NC(=O)N(C)C[C@H](O)C(F)(F)F)s1 | -1 | 0.19 |
| Nc1ncccc1CNS(=O)(=O)c1cccc(C(=O)N2CCC2)c1 | 0 | -0.02 |
| Cc1cccc(S(=O)(=O)N2C[C@H](c3noc(C)n3)C3(CCOCC3)C2)c1 | 0 | 0 |
| CCOc1ccc(N2CCC(C)(C)C2)nn1 | -8 | 0.76 |
| CN1CCN(CC2CCN(C(=O)NCc3cccc(F)c3)CC2)CC1 | -10 | 1 |
| CCN(CC(=O)c1c(N)n(CC)c(=O)[nH]c1=O)c1ccc(F)cc1 | -7 | 1.22 |
| CC1CCC2C(CCCN2C(=O)c2ccc(CS(C)(=O)=O)o2)C1 (stereo not given) | -7 | 1.22 |
| CC(=O)NCCNS(=O)(=O)c1ccc(C)cc1Br | -7 | 0.92 |
| CCN(CC)CC(=O)N1CCN(c2nncc3ccccc23)CC1 | -9 | 1.69 |

| SMILES | % Inhibition [%] | Z score |
| --- | --- | --- |
| CC1CCN(C(=O)c2ccc3c(c2)N(Cc2ccccc2)C(=O)CO3)CC1 | -5 | 0.69 |
| CC1CN(C(=O)CNC2CC(C)(C)OC2(C)C)CC(C)O1 (stereo not given) | -1 | 0.09 |
| CCCS(=O)(=O)Nc1cccn2ncnc12 | -6 | 0.63 |
| O=C(Cc1cccnc1)NCc1cccnc1-c1ccsc1 | 1 | -0.15 |
| Cc1cc(C(=O)Nc2onc(C3CCCCC3)c2C)nc(C(F)(F)F)n1 | 2 | -0.29 |
| CS(=O)(=O)N1C[C@@H]2OC(=O)N(CCc3ccc(F)cc3)[C@@H]2C1 | 15 | -1.95 |
| CC[C@@]1(C(=O)NCc2cccc(COC3CCOCC3)c2)CCCN1 | -9 | 0.87 |
| O=C([C@H]1CCO[C@@H]1c1ccncc1)N1CCN(c2ccc(F)cc2)CC1 | -12 | 2.03 |
| CC1Cc2ccccc2N1C(=O)C1CCS(=O)(=O)C1 (stereo not given) | 5 | -1.02 |
| C[C@H]1CCCN(C(=O)Nc2cnn(-c3ccccc3)c2)C1 | 6 | -1.2 |
| Oc1cc(CN[C@H]2CCc3c(O)cccc32)nc(C2CC2)n1 | -12 | 2.24 |
| Cc1cc(NC(=O)CN2CCC[C@H]2c2nc(-c3ccccn3)no2)no1 | -7 | 0.92 |
| CC(C)Cc1nc(CNC(=O)c2ccncc2F)no1 | 10 | -1.82 |
| CCC(=O)N(Cc1csc(COc2ccc(Cl)cc2)n1)C1CC1 | -2 | 0.23 |
| CCOC1(C(=O)Nc2cnc3ccccc3c2)CCCC1 | 19 | -2.2 |
| CC[C@H](NC(=O)NCc1scnc1C)c1ccc(F)cc1F | -7 | 1.33 |
| O=C1CCC2(CCN(C(=O)c3ccon3)CC2)CN1Cc1cccnc1 | 5 | -0.6 |
| CCCN1CCN(C(=O)c2nn(CC)c3c2COCC3)CC1 | -6 | 1.01 |
| Cc1cc(CS(=O)(=O)CC(=O)N2CCc3ccccc3C2)on1 | 2 | -0.31 |
| NS(=O)(=O)c1ccc(Cl)c(Cl)c1Cl | -5 | 0.95 |
| c1c(CN2CCOCC23CC3)sc2c1CNCC2 | -10 | 1.03 |
| Cc1cccn2cc(C(=O)N3CCO[C@H](c4ncon4)C3)cc12 | 1 | -0.17 |

| SMILES | % Inhibition [%] | Z score |
| --- | --- | --- |
| COc1ccc(CNC(=O)CC[C@@H]2CNC(=O)[C@@H]3C[C@H](NCc4ccccc4)CN23)cc1 | 9 | -1.04 |
| COc1ccc(-n2cccn2)c(CN2C[C@H]3CC(=O)NCCN(C)C(=O)c4cccc(OC)c4OCc4cn(nn4)[C@H]3C2)c1 | -3 | 0.55 |
| CCS(=O)(=O)NC[C@H](C)N(C)Cc1cccc(OC)c1 | -2 | 0.35 |
| CCCS(=O)(=O)N[C@H]1CC(=O)N(C(C)(C)C)C1 | 3 | -0.5 |
| Cn1cc(S(N)(=O)=O)c(C2CCCC2)n1 | 8 | -1.33 |
| O=S(=O)(NC1CCC(F)(F)CC1)C1CC1 | -11 | 1.44 |
| Cc1ccc(C(N)=O)cc1NCc1ccn(C)c(=O)c1 | 0 | -0.04 |
| CC1CN(S(=O)(=O)N(C)C)CC(C)O1 (stereo not given) | 4 | -0.57 |
| COc1cc([C@@H]2c3cccn3CCCN2Cc2ccc(N(C)C)cc2)cc(OC)c1OC | -1 | 0.18 |
| O=C(CN1CCN(S(=O)(=O)c2ccc(F)cc2)CC1)NC1CCCCCC1 | -11 | 1.4 |
| COc1ccc(OC)c(CCN2C(=O)CC[C@@]2(C)C(=O)NC2CCCC2)c1 | -2 | 0.18 |
| CN(Cc1nnc2ccccn12)c1snc2ccccc12 | -13 | 1.44 |
| O=C1CN(C(=O)c2cccnc2Nc2ccccc2F)CCN1 | 1 | -0.22 |
| Cc1ncc(-c2cc(C(=O)N3CCC[C@H](C)C3)c3ccc(C)c(C)c3n2)cn1 | -11 | 1.5 |
| Cc1nn(CC(=O)N[C@H]2CC(=O)N(Cc3cccc(F)c3)C2)c(C)c1C | -5 | 0.49 |
| C[C@H]1CN(C(=O)c2onc3c2CCCC3)CCC1(F)F | -7 | 1.36 |
| O=c1[nH]c(-c2cccnc2)nc2c1CCC2 | -3 | 0.6 |
| CCO[C@@H](C)C(=O)Nc1cnns1 | 31 | -4.03 |
| CCCc1noc(-c2ccc3nnc(CC(=O)NC4CCCC4)n3c2)n1 | -24 | 3.79 |
